# Sequences with one replicate were seen in a single cluster, so their values are uncertain.
# Test system: ATP
# Assay: switch fluorescence ratio, 500 uM ATP over buffer (Cy3 cluster intensity, sum of 5 cycles each) (fold (ratio)); higher = stronger signal-on switching upon ATP binding; sequences stand for … in TCGTCGGCAGCGTCAGATGTGTATAAGAGACAGTTTTTTTTTTTTTTTTTTTTTTTTT…TC
# Details: aptamer strand: ATP DNA aptamer (quencher-CACCTGGGGGAGTATTGCGGAGGAAGG + anchor), 100 nM annealed; ATP concentration: 500 uM; one replicate
# In short: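 Clusters carrying Cy3-labelled switching strands on a modified Illumina MiSeq flow-cell were annealed to 100 nM quencher-labelled ATP aptamer and imaged in selection buffer. They were imaged again after 15 min with 500 uM ATP at 22 °C, over five buffer/ATP cycles with NaOH stripping and re-annealing in between. For each cluster, the fluorescence ratio is the summed Cy3 intensity of the target cycles divided by that of the buffer cycles, averaged per switch-domain sequence. Clusters outside 100-1000 RFU were left out.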
# 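Further: ATP exposure 15 min at 22 °C before imaging.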
row,Sequence,switch fluorescence ratio
1,GGCTTCGAAA,1.15
2,GGCTTTCTG,1.01
3,GGCTTTGCCA,1.02
4,GGCTTTGCCT,0.989
5,GGCTTTGTGC,0.979
6,GGCTTTTACC,0.988
7,GGCTTTTGCG,0.977
8,GGGAAAACT,1.13
9,GGGAAAACTT,1.03
10,GGGAAACCGT,0.982
11,GGGAAATTAA,0.968
12,GGGAAGATAG,1.02
13,GGGAAGGTCG,0.978
14,GGGAAGTAGC,1.02
15,GGGAATAGGA,0.977
16,GGGAATGGTA,0.962
17,GGGAATTCAA,0.99
18,GGGACAAGG,1.01
19,GGGACACCAC,1.13
20,GGGACAGGA,0.941
21,GGGACATAGG,0.979
22,GGGACATATG,0.984
23,GGGACATGCA,0.961
24,GGGACCCCAG,1.09
25,GGGACCCCGG,1.06
26,GGGACCCGCT,0.991

row,Sequence,switch fluorescence ratio
1,GGGACGAAAA,1.16
2,GGGACGAAGG,0.902
3,GGGACGGAGC,1.09
4,GGGACGTAGT,0.916
5,GGGACGTCGC,1.06
6,GGGACTAACT,1.07
7,GGGACTATTG,0.97
8,GGGACTTACA,1.24
9,GGGAGAGTAT,1.01
10,GGGAGCCTGT,1
11,GGGAGCGGGG,1.02
12,GGGAGGAAGT,0.996
13,GGGAGGGCCA,1.06
14,GGGAGTACTA,1
15,GGGAGTCGCA,0.895
16,GGGAGTGTAT,0.981
17,GGGATAATGC,0.981
18,GGGATACTAC,1.13
19,GGGATATTG,0.957
20,GGGATCGGGC,0.958
21,GGGATGCCCG,0.938
22,GGGATGCCGG,0.984
23,GGGATGTAGT,0.984
24,GGGATTGTAT,0.965
25,GGGATTTCAA,0.978
26,GGGCAAGGG,1.06

row,Sequence,switch fluorescence ratio
1,GGGCAAGTTG,1.02
2,GGGCAATCT,1.37
3,GGGCAATTAT,1.02
4,GGGCACGTGA,0.987
5,GGGCATATAA,1.07
6,GGGCATATGA,1.04
7,GGGCATC,1.07
8,GGGCATCCG,1.01
9,GGGCATTTAC,1.55
10,GGGCCAAACA,0.961
11,GGGCCATCAG,0.922
12,GGGCCATCTC,1.03
13,GGGCCCGAGT,0.999
14,GGGCCCGCAG,1.11
15,GGGCCCTTGA,1.04
16,GGGCCCTTGT,1.03
17,GGGCCGCGAC,1.31
18,GGGCCTCACA,0.986
19,GGGCCTGTGT,0.978
20,GGGCGTCATC,1.04
21,GGGCGTCCGT,1.04
22,GGGCGTTATC,1.01
23,GGGCTAACTC,1.04
24,GGGCTAGATT,1.04
25,GGGCTATAAT,1.02
26,GGGCTATCTC,1.06

row,Sequence,switch fluorescence ratio
1,GGGCTATGGC,1.04
2,GGGCTGCTTA,0.96
3,GGGCTGTACG,1.03
4,GGGCTGTATG,1.01
5,GGGCTTTAGC,1.08
6,GGGCTTTGAA,1
7,GGGGAAAGAC,1.1
8,GGGGAAGTCG,1.09
9,GGGGACCACT,0.974
10,GGGGACGTGA,1.02
11,GGGGATAATA,1.01
12,GGGGATCACA,1.04
13,GGGGCAAGTG,0.972
14,GGGGCATAGA,1.02
15,GGGGCCCTCT,0.966
16,GGGGCTACGC,1.03
17,GGGGCTATT,1.01
18,GGGGCTTCCT,1.38
19,GGGGGAAC,1.02
20,GGGGGAGC,0.961
21,GGGGGCCCGC,1
22,GGGGGCCGCG,1
23,GGGGGCCTGC,1.02
24,GGGGGCTTCC,1.49
25,GGGGGGACCC,0.927
26,GGGGGGGC,1.11

row,Sequence,switch fluorescence ratio
1,GGGGGTAAAT,1
2,GGGGGTGCAC,0.932
3,GGGGGTGCGC,1.01
4,GGGGGTTGCC,1.02
5,GGGGTAGTT,0.955
6,GGGGTCGAAC,0.953
7,GGGGTCGATT,0.968
8,GGGGTGATAA,0.969
9,GGGGTGTGCA,0.993
10,GGGGTTACCG,0.988
11,GGGGTTATA,1.01
12,GGGGTTCTCA,0.987
13,GGGTAAACAG,1.01
14,GGGTAAGTCC,0.999
15,GGGTACATCG,1.04
16,GGGTAGAAAT,0.979
17,GGGTAGCCGT,0.996
18,GGGTATAAGC,1.02
19,GGGTATACAT,1.05
20,GGGTATCGAC,1.04
21,GGGTATCTGG,0.912
22,GGGTATTGTC,0.987
23,GGGTCACAAC,0.978
24,GGGTCACAAG,0.968
25,GGGTCACCAA,1.04
26,GGGTCAGCCT,1.02

row,Sequence,switch fluorescence ratio
1,GGGTCATA,1.02
2,GGGTCCCCTA,0.931
3,GGGTCCCGAC,1.04
4,GGGTCGCTG,0.979
5,GGGTCGTCTC,0.956
6,GGGTCGTCTT,0.955
7,GGGTCTACTG,1.06
8,GGGTCTCTGA,0.996
9,GGGTCTGATA,0.96
10,GGGTCTTTAC,1.04
11,GGGTGAATAT,1.3
12,GGGTGACCAG,0.986
13,GGGTGACGAC,1.13
14,GGGTGAGC,0.933
15,GGGTGATCTA,0.959
16,GGGTGCACTG,0.986
17,GGGTGCACTT,0.982
18,GGGTGGATCT,0.97
19,GGGTGTGCGT,0.984
20,GGGTGTGTCT,0.975
21,GGGTGTTCAC,1
22,GGGTTAGCAG,0.997
23,GGGTTAGTGC,0.969
24,GGGTTCAGC,1.02
25,GGGTTCATAT,1.01
26,GGGTTCATCA,0.998

row,Sequence,switch fluorescence ratio
1,GGGTTCTACC,0.994
2,GGGTTCTCCC,1.01
3,GGGTTCTCGG,1.01
4,GGGTTGATCC,0.963
5,GGGTTGCACC,0.961
6,GGGTTGCCAA,1.03
7,GGGTTGCGAT,1.02
8,GGGTTGCTCC,1.01
9,GGGTTTCTGG,1.07
10,GGGTTTGCGG,1.01
11,GGTAAAAACT,0.983
12,GGTAACATTG,0.995
13,GGTAACCCGA,0.983
14,GGTAACCCGT,0.989
15,GGTAAGTACT,1.16
16,GGTAATCGAC,1.04
17,GGTAATCTAC,1.06
18,GGTAATTGGA,0.922
19,GGTACACAAA,0.96
20,GGTACCCCAA,0.999
21,GGTACGGGCG,0.926
22,GGTACTCTTG,0.999
23,GGTACTGGAT,1.01
24,GGTAGATGGG,0.947
25,GGTAGCAAGC,3.45
26,GGTAGCCGGC,1.02

row,Sequence,switch fluorescence ratio
1,GGTAGCCTTC,1.04
2,GGTAGCGTTC,1.06
3,GGTAGGACTT,0.999
4,GGTAGGATGG,0.962
5,GGTAGGCCCC,0.953
6,GGTAGGGTCA,1
7,GGTAGGTGAA,1.03
8,GGTAGTACAA,1.04
9,GGTAGTAG,1.01
10,GGTAGTATGA,1.07
11,GGTAGTATTA,1
12,GGTATAAGAC,1.01
13,GGTATACGCG,0.996
14,GGTATAGCGG,0.943
15,GGTATATCAT,0.966
16,GGTATATCCT,1.02
17,GGTATCTTGC,0.979
18,GGTATCTTTC,0.976
19,GGTATGAAGC,0.97

# From the supplement of paper PMC10126150
